Laboratory results reported in PubChem BioAssay AID330 (DTP/NCI, 2004).
“And” between values parts separate entries of the source, which are not always exact repeats. Identical values can stand only once. The source gives many values for each of these; only a part stands here. Inconclusive results and toxic doses are left out.

Tested on: P388 leukemia ip, CD2F1 mice, survival T/C
Assay: NCI In Vivo Anticancer Drug Screen. Data for tumor model P388 Leukemia (intraperitoneal) in CD2F1 (CDF1) mice
Conditions: endpoint: median survival time, higher = longer survival
Experimental: The antitumor activity of compounds was measured in mice bearing transplantable tumors. Survival or tumor size were measured and the results are expressed as the measurement made in the treated group (T) divided by the measurement made in the vehicle treated control group (C). The tumor model used in this assay is P388 Leukemia (intraperitoneal) in CD2F1 (CDF1) mice

## O=C1c2c(O)ccc(O)c2C(=O)c2c(NCCNCCO)ccc(NCCNCCO)c21
dose: 0.25 mg/kg/injection, schedule: Q01DX009 (ip), vehicle: water
  T/C: 194 % of control and 173 % of control and 175 % of control
dose: 0.31 mg/kg/injection, schedule: Q01DX005 (ip), vehicle: water
  T/C: 175 % of control and 178 % of control and 218 % of control
dose: 0.31 mg/kg/injection, schedule: Q01DX009 (ip), vehicle: water
  T/C: 166 % of control
dose: 0.31 mg/kg/injection, schedule: Q04DX003 (ip), vehicle: water
  T/C: 159 % of control
dose: 0.38 mg/kg/injection, schedule: Q04DX003 (ip), vehicle: saline
  T/C: 159 % of control
dose: 0.38 mg/kg/injection, schedule: Q04DX003 (ip), vehicle: water
  T/C: 176 % of control and 208 % of control
dose: 0.4 mg/kg/injection, schedule: Q01DX009 (ip), vehicle: acid diluted with saline
  T/C: 436 % of control
dose: 0.47 mg/kg/injection, schedule: Q04DX003 (ip), vehicle: saline
  T/C: 209 % of control
dose: 0.5 mg/kg/injection, schedule: Q01DX005 (ip), vehicle: saline
  T/C: 401 % of control
dose: 0.5 mg/kg/injection, schedule: Q01DX005 (iv), vehicle: saline
  T/C: 167 % of control
dose: 0.5 mg/kg/injection, schedule: Q01DX009 (ip), vehicle: water
  T/C: 239 % of control and 265 % of control and 155 % of control
dose: 0.5 mg/kg/injection, schedule: Q04DX003 (ip), vehicle: saline
  T/C: 158 % of control
dose: 0.62 mg/kg/injection, schedule: Q01DX005 (ip), vehicle: water
  T/C: 231 % of control and 237 % of control and 250 % of control
dose: 0.62 mg/kg/injection, schedule: Q01DX009 (ip), vehicle: water
  T/C: 229 % of control and 236 % of control
dose: 0.65 mg/kg/injection, schedule: Q01DX009 (ip), vehicle: acid diluted with saline
  T/C: 409 % of control
dose: 0.65 mg/kg/injection, schedule: Q04DX003 (ip), vehicle: saline
  T/C: 221 % of control
dose: 0.75 mg/kg/injection, schedule: Q04DX002 (ip), vehicle: distilled water + Tween-80
  T/C: 203 % of control
dose: 0.75 mg/kg/injection, schedule: Q04DX002 (ip), vehicle: saline
  T/C: 199 % of control
dose: 0.75 mg/kg/injection, schedule: Q04DX003 (ip), vehicle: saline
  T/C: 168 % of control and 196 % of control and 186 % of control
dose: 0.75 mg/kg/injection, schedule: Q04DX003 (ip), vehicle: water
  T/C: 186 % of control and 200 % of control
dose: 0.78 mg/kg/injection, schedule: Q01DX005 (ip), vehicle: saline
  T/C: 364 % of control
dose: 0.78 mg/kg/injection, schedule: Q01DX005 (iv), vehicle: saline
  T/C: 203 % of control
dose: 0.78 mg/kg/injection, schedule: Q04DX003 (ip), vehicle: saline
  T/C: 185 % of control
dose: 0.8 mg/kg/injection, schedule: Q01DX009 (ip), vehicle: acid diluted with saline
  T/C: 436 % of control
dose: 0.8 mg/kg/injection, schedule: Q04DX003 (ip), vehicle: saline
  T/C: 225 % of control
dose: 0.86 mg/kg/injection, schedule: Q04DX002 (ip), vehicle: water
  T/C: 169 % of control and 191 % of control
dose: 1.0 mg/kg/injection, schedule: Q01DX005 (ip), vehicle: saline
  T/C: 401 % of control
dose: 1.0 mg/kg/injection, schedule: Q01DX005 (iv), vehicle: saline
  T/C: 169 % of control
dose: 1.0 mg/kg/injection, schedule: Q01DX009 (ip), vehicle: other
  T/C: 450 % of control
dose: 1.0 mg/kg/injection, schedule: Q01DX009 (ip), vehicle: water
  T/C: 206 % of control and 265 % of control and 163 % of control
dose: 1.0 mg/kg/injection, schedule: Q04DX003 (ip), vehicle: saline
  T/C: 172 % of control and 181 % of control
dose: 1.08 mg/kg/injection, schedule: Q04DX003 (ip), vehicle: saline
  T/C: 221 % of control
dose: 1.25 mg/kg/injection, schedule: Q01DX005 (ip), vehicle: water
  T/C: 185 % of control and 250 % of control and 291 % of control
dose: 1.25 mg/kg/injection, schedule: Q01DX009 (ip), vehicle: water
  T/C: 263 % of control and 312 % of control
dose: 1.3 mg/kg/injection, schedule: Q01DX005 (ip), vehicle: saline
  T/C: 560 % of control
dose: 1.3 mg/kg/injection, schedule: Q04DX002 (ip), vehicle: water
  T/C: 215 % of control and 290 % of control
dose: 1.3 mg/kg/injection, schedule: Q04DX003 (ip), vehicle: saline
  T/C: 175 % of control and 189 % of control
dose: 1.3 mg/kg/injection, schedule: Q04DX003 (iv), vehicle: saline
  T/C: 203 % of control
dose: 1.44 mg/kg/injection, schedule: Q04DX002 (ip), vehicle: water
  T/C: 191 % of control and 205 % of control
dose: 1.5 mg/kg/injection, schedule: Q04DX002 (ip), vehicle: distilled water + Tween-80
  T/C: 250 % of control
dose: 1.5 mg/kg/injection, schedule: Q04DX002 (ip), vehicle: saline
  T/C: 241 % of control
dose: 1.5 mg/kg/injection, schedule: Q04DX003 (ip), vehicle: saline
  T/C: 192 % of control and 241 % of control and 222 % of control
dose: 1.5 mg/kg/injection, schedule: Q04DX003 (ip), vehicle: water
  T/C: 254 % of control and 260 % of control
dose: 1.5 mg/kg/injection, schedule: Q04DX003 (iv), vehicle: saline
  T/C: 151 % of control
dose: 1.56 mg/kg/injection, schedule: Q04DX002 (ip), vehicle: water
  T/C: 200 % of control
dose: 1.62 mg/kg/injection, schedule: Q04DX003 (ip), vehicle: saline
  T/C: 247 % of control
dose: 1.8 mg/kg/injection, schedule: Q04DX003 (ip), vehicle: saline
  T/C: 201 % of control and 273 % of control
dose: 1.8 mg/kg/injection, schedule: Q04DX003 (ip), vehicle: water
  T/C: 210 % of control and 229 % of control
dose: 2.0 mg/kg/injection, schedule: Q01DX001 (ip), vehicle: acid diluted with saline
  T/C: 571 % of control
dose: 2.0 mg/kg/injection, schedule: Q01DX005 (ip), vehicle: saline
  T/C: 401 % of control
dose: 2.0 mg/kg/injection, schedule: Q01DX005 (iv), vehicle: saline
  T/C: 187 % of control
dose: 2.0 mg/kg/injection, schedule: Q01DX009 (ip), vehicle: other
  T/C: 95 % of control
dose: 2.0 mg/kg/injection, schedule: Q01DX009 (ip), vehicle: water
  T/C: 250 % of control [middle of 4 runs]
dose: 2.0 mg/kg/injection, schedule: Q04DX003 (ip), vehicle: saline
  T/C: 183 % of control and 201 % of control
dose: 2.16 mg/kg/injection, schedule: Q01DX005 (ip), vehicle: saline
  T/C: 289 % of control
dose: 2.16 mg/kg/injection, schedule: Q01DX005 (iv), vehicle: saline
  T/C: 96 % of control
dose: 2.16 mg/kg/injection, schedule: Q04DX002 (ip), vehicle: water
  T/C: 267 % of control and 409 % of control
dose: 2.16 mg/kg/injection, schedule: Q04DX003 (ip), vehicle: acid diluted with saline
  T/C: 409 % of control
dose: 2.16 mg/kg/injection, schedule: Q04DX003 (ip), vehicle: saline
  T/C: 212 % of control and 420 % of control
dose: 2.2 mg/kg/injection, schedule: Q04DX003 (ip), vehicle: saline
  T/C: 294 % of control
dose: 2.4 mg/kg/injection, schedule: Q04DX002 (ip), vehicle: water
  T/C: 227 % of control and 233 % of control
dose: 2.5 mg/kg/injection, schedule: Q01DX005 (ip), vehicle: water
  T/C: 199 % of control and 259 % of control
